Reference: PubChem BioAssay AID540317 (National Center for Advancing Translational Sciences (NCATS), 2011)
The campaign covered roughly 390,000 compounds. About 2,200 (0.56%) were called active. Inconclusive results, whose numbers are uncertain, are shown with a selection of clear calls. Calls come from the whole dose curve; as a rule, active = well fitted inhibition curve with a large enough effect; inconclusive = small, poorly fitted or top-dose-only effect; inactive = no such curve, though single readings can be large or run the other way. Where the call is inconclusive, the potency comes from a doubtful curve fit.
Note: nearly all actives have a fitted effect of over 70% in size.
Potency is the fitted concentration of half-maximal effect; tags give direction and shape of the fitted curve.

These molecules were tested against Chromobox protein homolog 1 (Homo sapiens) (UniProt P83916) (assay: HTS for Inhibitors of HP1-beta Chromodomain Interactions with Methylated Histone Tails). Settings: AlphaScreen HP1-beta / biotin-H3K9me3 peptide binding; series mostly up to 114 µM.
Chain of UniProt P83916 (P83916 whole entry, looked up): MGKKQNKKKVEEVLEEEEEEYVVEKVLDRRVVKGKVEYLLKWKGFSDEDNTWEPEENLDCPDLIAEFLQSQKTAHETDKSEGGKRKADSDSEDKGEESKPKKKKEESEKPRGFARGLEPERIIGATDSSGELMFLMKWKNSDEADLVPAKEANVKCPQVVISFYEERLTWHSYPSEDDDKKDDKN
How it was run: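 Compound inhibition of the preformed complex between 50 nM HP1-beta and 50 nM biotinylated H3K9me3 peptide was read by AlphaScreen. Buffer was PBS pH 7.4 with 0.01% Tween-20. Incubations ran 30 min at room temperature, with 10 ug/mL donor/acceptor beads.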
With `CNC(=O)Nc1ccc2snnc2c1` the Potency was “inactive”.
For `CCC(C)NCCOc1ccccc1C` (stereo not drawn), the Potency was inconclusive: 70.8 µM [inhibitor, partial curve].
With `CC(C)OC(=O)c1cc2c(ccn2C)n1CC(=O)N1CCC(Cc2ccccc2)CC1` the Potency was inconclusive: 50.1 µM [inhibitor, partial curve].
For `O=C(CSC(=S)N1CCCC1)N1CCN(S(=O)(=O)c2cccc(F)c2)CC1`, the Potency was “inactive”.
For `COc1ccc(CNc2nc(-c3ccccc3)nn2C(=O)c2ccc([N+](=O)[O-])cc2)cc1`, the Potency was inconclusive: 6.31 µM [inhibitor, full curve, poor fit].
`CC(=O)N(/N=C1\Sc2ccccc2C1=O)c1ccccc1C` was tested, and the Potency was inconclusive: 50.1 µM [inhibitor, partial curve].
`C[C@@H](CSc1ccc(Br)cc1)CN1CC[C@H](NC(=O)OCc2ccccc2)CCC1=O` was tested, and the Potency was “inactive”.
With `CCSc1nc2n(n1)C(c1ccc(CC)cc1)C(C(=O)Nc1ccccc1OC)=C(C)N2` (stereo not drawn) the Potency was “inactive”.
`Fc1ccccc1-n1c(-c2ccc3ccccc3n2)n[nH]c1=S` was tested, and the Potency was “inactive”.
For `COc1ccccc1C1Nc2cccc3cccc(c23)N1`, the Potency was inconclusive: 17.8 µM [inhibitor, full curve, poor fit].
For `Cc1cc(S(=O)(=O)N2CCN(CC(=O)N(C)Cc3ccccc3)CC2)ccc1Br`, the Potency was “inactive”.
`O=[N+]([O-])c1cc([N+](=O)[O-])c(Oc2ccc(Br)cc2Br)cc1NN1CCCCC1` was tested, and the Potency was inconclusive: 6.31 µM [inhibitor, full curve].
In the case of `O=C(NCc1ccco1)C(c1ccco1)N(CCc1ccccc1)C(=O)Cn1nnc2ccccc21` (stereo not drawn), the Potency is reported as inconclusive: 10 µM [inhibitor, partial curve, poor fit].
For `COc1ccccc1NC(=O)CCN1C(=O)/C(=C\c2cc(OC)c(OC)c(OC)c2)SC1=S`, the Potency was “inactive”.
In the case of `Nc1ccc(N2CCCCC2)c(S(=O)(=O)Nc2ccccc2Cl)c1`, the Potency is reported as inconclusive: 20 µM [inhibitor, full curve].
`O=C(C1CCN(Cc2ccc(F)cc2)CC1)N(CCc1ccccc1)Cc1ccccc1` was tested, and the Potency was inconclusive: 79.4 µM [inhibitor, partial curve].
`CCOc1cc(C2C3=C(CC(C)(C)CC3=O)N(CCOC)C3=C2C(=O)CC(C)(C)C3)ccc1OC` was tested, and the Potency was “inactive”.
With `O=[N+]([O-])c1cc(/C=N/N2CCCCC2)ccc1Cl` the Potency was inconclusive: 39.8 µM [inhibitor, partial curve].
For `CCn1c(=O)c2cc(C(=O)N3CCOCC3)sc2c2ccccc21`, the Potency was “inactive”.
For `Cn1c(=O)[nH]c(=O)c2c1nc(SCC(=O)O)n2Cc1ccccc1`, the Potency was inconclusive: 89.1 µM [inhibitor, single point].
For `Fc1ccc(-c2n[nH]c(=S)n2-c2ccc3c(c2)OCCO3)cc1`, the Potency was inconclusive: 56.2 µM [inhibitor, partial curve, poor fit].
In the case of `O=C(/C=C/c1ccc(Br)o1)NCc1ccccc1`, the Potency is reported as “inactive”.
With `CCCCCCCCOC(=O)c1c(CSC(=N)N)n(C)c2cc(Br)c(OC(C)=O)cc12` the Potency was inconclusive: 50.1 µM [inhibitor, partial curve].
`Clc1ccccc1OCCCCN1CCNCC1` was tested, and the Potency was inconclusive: 17.8 µM [inhibitor, partial curve].
In the case of `CCN(CC)c1ccc(NC(=O)c2ccc3c(c2)OCO3)cc1`, the Potency is reported as inconclusive: 50.1 µM [inhibitor, partial curve].
In the case of `CCN(CC)CCn1c2ccccc2c2nc3ccc([N+](=O)[O-])cc3cc21`, the Potency is reported as “inactive”.
For `O=C(CN1C(=O)C2CC=CCC2C1=O)Nc1nc(-c2ccc(F)c(F)c2)cs1` (stereo not drawn), the Potency was “inactive”.
For `Clc1cccc(C2Nc3cccc4cccc(c34)N2)c1`, the Potency was inconclusive: 20 µM [inhibitor, full curve].
`COc1cccc(NC2=C(NCCO)C(=O)c3ccccc3C2=O)c1` was tested, and the Potency was inconclusive: 25.1 µM [inhibitor, partial curve].
With `COCCN=C1NN=C(c2ccc(NC(C)=O)cc2)CS1` the Potency was “inactive”.
For `Cc1ccc(-c2csc(N3CCN(c4ccc5nc(-c6ccncc6)n(CCN6CCCCC6)c5c4)CC3)n2)cc1`, the Potency was inconclusive: 50.1 µM [inhibitor, partial curve, poor fit].
With `CC(CCN1CCN(CCO)CC1)c1ccccc1` (stereo not drawn) the Potency was inconclusive: 14.1 µM [inhibitor, partial curve, poor fit].
For `CCc1ccc(C2Sc3ccccc3NC3=C2C(=O)c2ccccc23)cc1` (stereo not drawn), the Potency was inconclusive: 11.2 µM [inhibitor, full curve, poor fit].
With `CNS(=O)(=O)c1ccc(Cl)nc1` the Potency was “inactive”.
`Nc1c(/C=C2/C=CC(=O)C(O)=C2)c(=O)nc2sc(CC(=O)N3CCOCC3)nn12` was tested, and the Potency was inconclusive: 44.7 µM [inhibitor, partial curve].
`CCOc1ccccc1Nc1nc(-c2sc(NC(=O)c3ccco3)nc2C)cs1` was tested, and the Potency was inconclusive: 39.8 µM [inhibitor, single point].
`C#CCOCCOCCOCCNc1nc(N2CCOCC2)nc(N2CCN(C(=O)CCCCCCCCCCNC(=O)[C@@H]([C@H](C)CC)n3cc(CCCCCN)nn3)CC2)n1` was tested, and the Potency was “inactive”.
With `CCCCN=Cc1c(C)[nH]n(-c2ccccc2)c1=S` the Potency was inconclusive: 79.4 µM [inhibitor, single point].
For `C=CC(=O)N1C/C(=C/c2ccc(Cl)cc2)C(=O)/C(=C\c2ccc(Cl)cc2)C1`, the Potency was inconclusive: 28.2 µM [inhibitor, single point].
For `Cc1ccc(CN(CC(=O)NC2CCCC2)C(=O)CSc2nnc(COc3ccccc3)o2)cc1`, the Potency was inconclusive: 8.91 µM [inhibitor, partial curve].
With `Brc1cccc(OCCCN2CCCCCC2)c1` the Potency was inconclusive: 25.1 µM [inhibitor, partial curve].
`COc1cc(C2c3[nH]c4ccccc4c3C[C@@H]3C(=O)N(Cc4ccco4)CC(=O)N23)cc(OC)c1OC` (stereo partly drawn) was tested, and the Potency was inconclusive: 70.8 µM [inhibitor, partial curve].
`N#CC1=C(N)S[C@@H](C(=O)c2ccc(F)cc2)[C@@H]1c1cccs1` was tested, and the Potency was “inactive”.
For `O=C(N/N=C/c1cccc2ccccc12)c1cccc(F)c1`, the Potency was “inactive”.
For `COc1cc(SC)ccc1C(=O)N1CCN(c2ccc(O)cc2)CC1`, the Potency was inconclusive: 70.8 µM [inhibitor, partial curve, poor fit].
In the case of `COc1ccc(C2=C(C)C(=O)N(Cc3ccc(C(=O)Nc4ccc(F)cc4C)cc3)S2(=O)=O)cc1`, the Potency is reported as inconclusive: 79.4 µM [inhibitor, single point].
`Cn1c(SCC(=O)c2ccccc2)nnc1C1COc2ccccc2O1` (stereo not drawn) was tested, and the Potency was “inactive”.
`COc1cc(CN2CCN(C(=O)CC(C)C)CC2)cc(OC)c1OC` was tested, and the Potency was inconclusive: 17.8 µM [inhibitor, full curve, poor fit].
In the case of `COc1cc(/C=C2/SC(=O)N(Cc3ccccc3Cl)C2=O)ccc1OCc1ccncc1`, the Potency is reported as “inactive”.
With `COc1cc(C2Nc3cccc4cccc(c34)N2)ccc1O` the Potency was inconclusive: 56.2 µM [inhibitor, partial curve, poor fit].
`S=C1NC2(CCCCC2)Cc2ccccc21` was tested, and the Potency was inconclusive: 50.1 µM [inhibitor, partial curve].
With `CCOc1ccc(N=Nc2c(=O)[nH]n3c(=O)c4c([nH]c23)CCCC4)cc1` the Potency was inconclusive: 39.8 µM [inhibitor, partial curve].
With `Cc1ccc(S(=O)(=O)Cc2cc(-c3ccc(Cl)cc3)no2)cc1` the Potency was inconclusive: 89.1 µM [inhibitor, single point].
In the case of `CC(=O)NC(NC(=S)Nc1ccc(N=Nc2ccccc2)cc1)C(Cl)(Cl)Cl` (stereo not drawn), the Potency is reported as inconclusive: 15.8 µM [inhibitor, partial curve, poor fit].
With `Cc1c(Cc2ccccc2)sc(/N=C/c2c(O)ccc3ccccc23)c1C(N)=O` the Potency was inconclusive: 70.8 µM [inhibitor, single point].
In the case of `CC(C)(C)c1ccc(OCC(=O)NNC(=S)NC(=O)c2ccco2)c(Br)c1`, the Potency is reported as inconclusive: 20 µM [inhibitor, full curve].
`CCOC(=O)CCCCCC(=O)Nc1ccc2c(c1)CC(=O)N([C@H](C)CO)C[C@H](C)[C@H](CN(C)S(=O)(=O)c1ccc(OC)cc1)O2` was tested, and the Potency was “inactive”.
In the case of `CN(c1ccccc1)S(=O)(=O)c1ccc(C(=O)Nc2nccs2)cc1`, the Potency is reported as “inactive”.
For `CCCOc1ccc(C2=NC(c3ccncc3)=Nc3ccc(C)cc3N2)cc1`, the Potency was inconclusive: 4.47 µM [inhibitor, full curve, poor fit].
With `Cc1cccc(Nc2ccc(S(=O)(=O)N3CCOCC3)cc2[N+](=O)[O-])c1` the Potency was inconclusive: 12.6 µM [inhibitor, full curve, poor fit].
With `CCN(c1ccc(NC(=O)CN2C(=O)NC3(CCOc4ccccc43)C2=O)cc1)C(C)C` (stereo not drawn) the Potency was inconclusive: 70.8 µM [inhibitor, partial curve].
For `CC(=O)N1CCN(c2ccccc2NC(=O)c2ccc(Br)o2)CC1`, the Potency was “inactive”.
For `Cc1nc(S/C(=C/c2ccc(-c3ccc(C(=O)O)cc3)o2)C(=O)O)n[nH]1`, the Potency was inconclusive: 39.8 µM [inhibitor, partial curve].
`O=C1CN(C(=O)c2ccc(S(=O)(=O)N3CCCC3)cc2)C(c2ccccc2)c2cc(Cl)ccc2N1` (stereo not drawn) was tested, and the Potency was “inactive”.
With `COc1cccc(C2c3cc4c(cc3OC(N3CCCC3)C2C)OCO4)c1O` (stereo not drawn) the Potency was inconclusive: 50.1 µM [inhibitor, partial curve, poor fit].
For `O=C(NCCCN1CCOCC1)c1onc(CSc2ccccc2)c1C(=O)NCCCN1CCOCC1`, the Potency was “inactive”.
In the case of `COc1ccccc1CCNCc1ccc(OC)c(OCc2ccccc2)c1`, the Potency is reported as inconclusive: 17.8 µM [inhibitor, full curve].
`O=S(=O)(NCC(c1ccco1)N1CCOCC1)c1ccc(F)cc1` (stereo not drawn) was tested, and the Potency was “inactive”.
